Measured values taken from PubChem BioAssay (NCI).
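Cultured in 96-well plates, cells were exposed to test compound for 48 hours across five concentrations. GI50 = concentration required for 50% inhibition of growth.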 For part of its entries the source gives two or more results. The other results are left out here. There may be further records. Results that share an entry are repeats in other runs, samples, wells, individuals or studies. Brackets tell where a record comes from. Letters hold for one entry only.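 TGI is the concentration that stops growth completely.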

Key:
Assay in all cases: NCI tumour cell line growth inhibition, 48 h
CCRF-CEM leukemia = test system: CCRF-CEM leukemia
KM12 colon = test system: KM12 colon
MDA-MB-231 breast = test system: MDA-MB-231 breast
SR leukemia = test system: SR leukemia

SMILES	TGI (CCRF-CEM leukemia)	GI50 (KM12 colon)	TGI (MDA-MB-231 breast)	TGI (SR leukemia)
C=CCN1C(=O)/C(=C/c2ccc(C)cc2)N=C1SC1OC(COC(C)=O)C(OC(C)=O)C(OC(C)=O)C1OC(C)=O (centres undefined)	> 90.7 µM [sample A, mean of 2 tests] and 6.88 µM [sample B, 1 test]	> 100 µM [sample A, mean of 2 tests] and 3.03 µM [sample B, 1 test]		
COc1ccc(F)c(F)c1C(=O)c1cnc(NC2CCN(S(C)(=O)=O)CC2)nc1N			> 100 µM [sample A, 1 test] and 4.89 µM [sample B, mean of 2 tests]	> 100 µM [sample A, 1 test] and 788 nM [sample B, 1 test]
